# Source: the supplement of paper PMC3334620
# In all, about 33,000 sequences were measured (“E-score (-0.5 to 0.5)”: median about -0.013, highest 2% from about 0.3 on). The list shows a part of the results.
# Biological target: T1, Msn1 (UniProt P22148)
# T1 sequence: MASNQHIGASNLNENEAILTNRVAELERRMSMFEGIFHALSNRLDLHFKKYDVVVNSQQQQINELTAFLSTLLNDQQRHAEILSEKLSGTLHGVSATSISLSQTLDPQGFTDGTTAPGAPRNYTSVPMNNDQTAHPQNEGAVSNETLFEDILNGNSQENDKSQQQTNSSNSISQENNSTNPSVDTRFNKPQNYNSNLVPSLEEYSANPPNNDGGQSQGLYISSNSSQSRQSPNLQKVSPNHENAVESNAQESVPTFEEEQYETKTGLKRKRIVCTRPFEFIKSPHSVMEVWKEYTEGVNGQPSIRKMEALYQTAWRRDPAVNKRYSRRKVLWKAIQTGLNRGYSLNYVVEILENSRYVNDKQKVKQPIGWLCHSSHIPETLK
# Experiment: PBM E-score (8-mer binding enrichment) (E-score (-0.5 to 0.5)); higher = stronger / more preferred TF binding; most listed sequences are background and not binding sites
# Details: protein concentration: 200 nM; construct: GST-full length
# Method in brief: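 Universal all-10-mer Agilent arrays, fresh or stripped once, were converted to double-stranded form by primer extension. GST-tagged yeast transcription factors from PURExpress in vitro transcription/translation, full-length or DNA-binding domain only, were applied at about 100-200 nM and detected with fluorescent anti-GST. After masliner normalisation, the Universal PBM Analysis Suite scored each ungapped eight-base word together with its reverse complement by E-score.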
row,Sequence,PBM E-score
1,CATAAACA,0.163
2,ACAGGTCT,0.0475
3,CTAGGTTA,-0.0489
4,GAGTACAC,0.133
5,CCTCGTTA,-0.0809
6,CGCACTTC,-0.208
7,AAATTACA,0.192
8,CTTATATA,0.156
9,GCGGCTTA,-0.252
10,GTCAAATA,0.196
11,GAGTAGGA,-0.151
12,CAACTAGA,0.0553
13,AAGATATC,-0.0407
14,CTATTTGC,0.091
15,AAGATTTG,-0.0279
16,CAACGTCC,-0.162
17,GATGATGA,-0.107
18,GTAGCCAC,-0.178
19,ATTACTCC,-0.113
20,AAGATTGT,0.196
21,AACTGCGC,0.0166
22,AGGGGAAA,-0.106
23,AATTGGCG,0.054
24,CCGTGACG,0.0942

row,Sequence,PBM E-score
1,CTTCAGAC,0.079
2,CTATGTTA,0.136
3,CATGTACA,0.3
4,CCGTTTAC,0.101
5,GATTAGAA,-0.0279
6,CTCGCATC,0.0505
7,ATGACCTC,-0.14
8,AATGGTCT,-0.108
9,AGCATGAA,-0.0305
10,GGGCAAGA,0.21
11,ACTCAGCG,-0.0293
12,GCGTACAA,0.0505
13,CACGGCTC,-0.0257
14,ACTATGCG,-0.0367
15,ACGCATCC,-0.157
16,CAGCGTGG,-0.0889
17,CCTTTTGA,0.183
18,ATTTGGTC,0.124
19,ACATAACC,0.0931
20,AACCAACT,-0.00361
21,GTAGAGAC,-0.083
22,CACTACCA,0.0209
23,AAGTGTGC,0.0122
24,GCTGTTAC,-0.109

row,Sequence,PBM E-score
1,GGTCTAAC,-0.0445
2,GCCTGGTA,-0.0759
3,ACCACACG,-0.164
4,CATGGAGG,-0.156
5,CTAGCGCC,-0.234
6,CGGCTATA,0.0929
7,AACCCCTT,-0.282
8,TCGATTAA,0.186
9,AGTGCGCC,-0.0471
10,CAAGCACC,-0.209
11,CTTACCTA,-0.116
12,GACTCGAC,0.00452
13,CTCCAAAA,-0.0226
14,GCCGAGAA,0.0461
15,AGTTTCTA,-0.0256
16,CTTTCAGC,-0.0883
17,TAGTGGCA,-0.158
18,AAAGGCAG,0.0441
19,TCAACGGA,-0.0103
20,CAACGATC,-0.102
21,ATCATCGA,0.015
22,ATAGAACG,0.127
23,TACGCAAA,-0.175
24,AGTCGAGA,0.0774

row,Sequence,PBM E-score
1,AATTAGAC,0.241
2,ATTGGTCA,0.0406
3,AGGAGCGA,0.00946
4,ATCCGGCA,-0.0839
5,ATGACTAG,0.157
6,AGATATCG,-0.22
7,AGGGACCG,-0.215
8,CGACGGGA,0.0248
9,AGTAGTAA,0.0664
10,CTCTTGAA,-0.127
11,CACTGTGA,-0.0912
12,AGCTGATC,0.00591
13,GCGATTCA,-0.0661
14,CTCTCGAC,-0.21
15,GCCCTCTA,-0.279
16,AGCATAAT,0.036
17,ACGCTCAG,-0.142
18,GCAGGGCA,0.0279
19,AAAACATG,0.0405
20,CAGTTACA,0.0424
21,GAATCCCC,-0.101
22,CACATCCG,0.149
